# A collection of fitness landscapes (doi:10.1016/j.celrep.2020.107928)
# The full ranking holds about 81,000 sequences; the median of “one-hybrid fitness for binding NBS DNA” is about -0.1, and the highest 2% start at about 0.36. Some of the results follow.
# B1: Caulobacter ParB omega fusion; a variant is named by its letters at X, in order, B8GW30 (parent)
# chain: MESVVVGEPGMSEGRRGLGRGLSALLGEVDAAPAQAPGEQLGGSREAPIEILQRNPDQPRRTFREEDLEDLSNSIREKGVLQPILVRPSPDTAGEYQIVAGERAWRAAQRAGLKTVPIMVRELDDLAVLEIGIIENVQRADLNVLEEALSYKVLMEKFERTQENIAQTIGKSXSHVANXMRLLXLPDEVQSYLVSGELTAXHARAIAAAADPVALAKQIIEGGLSVRETEALARKAPNLSAGKSKGGRPPRVKDTDTQALESDLSSVLGLDVSIDHRGSTGTLTITYATLEQLDDLCNRLTRGI
# Variants of: B1
# Assay: one-hybrid fitness for binding NBS DNA (the Noc-binding site; scaled: cognate 1, non-cognate 0); higher = stronger binding
# Conditions: with NBS DNA site
# Procedure, shortened: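 Fitness here means the log change in variant-to-wild-type read ratio between plasmids sequenced before and after selection. That scale was set so cognate equals 1 and non-cognate equals 0. The selection was a bacterial one-hybrid screen of Caulobacter ParB libraries, four specificity codons randomised, in E. coli USO carrying a HIS3 reporter with the site 19 bp from the promoter, grown 48 hours at 37°C on M9-minus-histidine with 0.1 mM IPTG and 5 mM 3-AT.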
row,Variant,one-hybrid fitness for binding NBS DNA
1,DFGR,≤ 0.2
2,TGMR,≤ 0.2
3,WVMG,≤ 0.2
4,PPLE,≤ 0.2
5,DQVR,≤ 0.2
6,LCNG,≤ 0.2
7,HNAS,≤ 0.2
8,FERG,≤ 0.2
9,AWHG,≤ 0.2
10,PWSQ,≤ 0.2
11,RKMW,≤ 0.2
12,YVVL,≤ 0.2
13,WDCG,≤ 0.2
14,HSEY,≤ 0.2
15,FYQR,≤ 0.2
16,KYMA,≤ 0.2
17,FART,≤ 0.2
18,PHKV,≤ 0.2
19,RILN,≤ 0.2
20,PRHW,≤ 0.2
21,VSYW,≤ 0.2

row,Variant,one-hybrid fitness for binding NBS DNA
1,PGHL,≤ 0.2
2,LCFF,≤ 0.2
3,KMLY,≤ 0.2
4,LRNQ,≤ 0.2
5,CVNK,≤ 0.2
6,NHKM,≤ 0.2
7,IALF,≤ 0.2
8,CHYY,≤ 0.2
9,PSMM,≤ 0.2
10,TIFA,≤ 0.2
11,KTER,≤ 0.2
12,MLAG,≤ 0.2
13,IMES,≤ 0.2
14,HGRH,≤ 0.2
15,LTKS,≤ 0.2
16,AYVE,≤ 0.2
17,CYKR,≤ 0.2
18,AQRY,≤ 0.2
19,KYMT,≤ 0.2
20,LMLM,≤ 0.2
21,EDHC,≤ 0.2

row,Variant,one-hybrid fitness for binding NBS DNA
1,PEYQ,≤ 0.2
2,GYKH,≤ 0.2
3,HTYM,≤ 0.2
4,NFSM,≤ 0.2
5,TIRY,≤ 0.2
6,CEIR,≤ 0.2
7,RNIN,≤ 0.2
8,TFNG,≤ 0.2
9,YSPM,≤ 0.2
10,YVFC,≤ 0.2
11,SDYG,≤ 0.2
12,MVMN,≤ 0.2
13,APLD,≤ 0.2
14,KWYY,≤ 0.2
15,LSKG,≤ 0.2
16,HRHG,≤ 0.2
17,PCKV,≤ 0.2
18,ELQC,≤ 0.2
19,QILI,≤ 0.2
20,HRER,≤ 0.2
21,TQPS,≤ 0.2

row,Variant,one-hybrid fitness for binding NBS DNA
1,TFCG,≤ 0.2
2,WMND,≤ 0.2
3,SYWC,≤ 0.2
4,MIKT,≤ 0.2
5,TIYR,≤ 0.2
6,AKPG,≤ 0.2
7,LLNQ,≤ 0.2
8,RGSR,≤ 0.2
9,IMSL,≤ 0.2
10,TFPC,≤ 0.2
11,QLMF,≤ 0.2
12,TKVS,≤ 0.2
13,MPAR,≤ 0.2
14,EGDD,≤ 0.2
15,SSFV,≤ 0.2
16,GPRR,0.28
17,SHNG,≤ 0.2
18,HNGW,≤ 0.2
19,QQPL,≤ 0.2
20,TAGR,≤ 0.2
21,SCTV,≤ 0.2
